Laboratory results published in PubChem BioAssay AID624296 (National Center for Advancing Translational Sciences (NCATS), 2012).
The whole screen tested about 350,000 compounds, of which about 9,900 (2.8%) were called active. The shares of active, inactive and inconclusive entries below differ from those in the screen. The call rests on the fitted dose curve; in most records, active means well fitted activation curve with a large enough effect; inconclusive means small, poorly fitted or top-dose-only effect; inactive means no such curve, though single readings can be large or run the other way. No potency is given beside an inconclusive call; the fits are too rough.
Potency means the concentration at half of the fitted maximal effect; tags describe the fitted curve by direction and shape.

Assay: A quantitative high throughput screen for small molecules that induce DNA re-replication in MCF 10a normal breast cells. Further: nearly all actives have a fitted effect of over 50% in size.
Conditions: MCF 10A DNA re-replication, Hoechst nuclear intensity, 48 h; series mostly up to 46.1 µM
For CCOc1ccc(Nc2nc(NCC3CCCO3)c3ccccc3n2)cc1 (stereo not given), the Potency was inconclusive [activator, single point].
For COc1ccc(/C=C/C(=O)c2ccc(C)c([N+](=O)[O-])c2)cc1O, the Potency was inconclusive [activator, single point].
In the case of COc1ccc(-c2cc(-c3ccc(OC)cc3)nc(-c3ccc4c(c3)NC(=O)CO4)c2)cc1, the Potency is reported as inconclusive [activator, partial curve, poor fit].
With Cc1ccc(NC(=S)N/N=C2\CC3CC=CC23)c(C)c1 (stereo not given) the Potency was inconclusive [activator, full curve, poor fit].
With CCOc1cc(/C=N/NC(=O)C(O)(c2ccccc2)c2ccccc2)ccc1OC(=O)c1ccco1 the Potency was “inactive”.
In the case of O=C1CC(c2ccc(Cl)cc2)Oc2ccc(Cl)cc21 (stereo not given), the Potency is reported as inconclusive [activator, single point].
With O=C(NNc1ccccc1)c1ccccc1 the Potency was inconclusive [activator, single point].
With CCn1c2ccccc2c2cc(/C=C(/C#N)C(N)=S)ccc21 the Potency was inconclusive [activator, single point].
With Cc1ccc(/C=N/NC(=O)CSc2nc3ccccc3n2Cc2ccccc2)o1 the Potency was inconclusive [activator, full curve].
For Cc1noc2ncnc(Oc3cc(Cl)ccc3Cl)c12, the Potency was inconclusive [activator, partial curve, poor fit].
With CCC1=Nc2cc(C(=O)NCc3ccco3)ccc2Sc2ccccc21 the Potency was active: 4.11 µM.
For COc1ccc(/C=C2\SC(=S)N(CC(=O)NCCO)C2=O)cc1, the Potency was “inactive”.
With N=C1S/C(=C\c2ccccc2F)C(=O)N1c1ccc(F)cc1 the Potency was “inactive”.
For COc1ccc(C)cc1NC(=O)CCCNC(=O)Cn1cnc2sc(C)c(C)c2c1=O, the Potency was “inactive”.
With CCN(C(=O)COC(=O)c1c(C)nsc1NC)c1ccccc1 the Potency was inconclusive [activator, single point].
For c1ccc(C2=NOC(c3nnc(-c4ccccc4)o3)C2)cc1 (stereo not given), the Potency was inconclusive [activator, full curve].
With CCOc1cc(N2CCOCC2)c(OCC)cc1NC(=O)c1cc(-c2ccco2)nc2ccccc12 the Potency was inconclusive [activator, partial curve].
In the case of CCOc1cc(N2CCOCC2)c(OCC)cc1NC(=O)CCC1CCCC1, the Potency is reported as inconclusive [activator, single point].
For Cc1c(/C(Cc2ccccc2)=N/O)c2ccccc2n1C, the Potency was inconclusive [activator, partial curve, poor fit].
For Cc1cc(Cn2nnc3ccccc32)c(O)c(C(C)(C)C)c1, the Potency was inconclusive [activator, partial curve, poor fit].
With COc1ccc(NC(=O)/C(C#N)=C\C=C\c2ccco2)cc1 the Potency was active: 11.6 µM.
With CON1C(=O)C(=O)N(OC)C(C)(C)C1C (stereo not given) the Potency was inconclusive [activator, single point].
For O=C1c2ccccc2C(=O)c2c1ccc1c(=O)n(C3CCCCC3)[nH]c21, the Potency was inconclusive [activator, single point].
In the case of O=Cc1ccc(O)c(O)c1, the Potency is reported as “inactive”.
With O=C(CSc1ccccc1)N/N=C/c1ccccc1O the Potency was “inactive”.
For Cc1cc(=O)[nH]c(SCC(=O)Nc2ccc(C)c(S(=O)(=O)N3CCCCC3)c2)n1, the Potency was inconclusive [activator, partial curve, poor fit].
In the case of O=C(CSc1nnc(SCc2ccc(Cl)cc2)s1)N/N=C/c1ccc(Cl)cc1Cl, the Potency is reported as inconclusive [activator, single point].
For CN(C)CC(O)CN(c1ccccc1)c1ccccc1 (stereo not given), the Potency was “inactive”.
With COc1ccc(-c2csc3ncnc(Sc4nnnn4C)c23)cc1 the Potency was inconclusive [activator, full curve, poor fit].
With CCCOc1ccc(-c2nnn(CC(=O)Nc3cccc(C(=O)OC)c3)n2)cc1 the Potency was “inactive”.
In the case of O=C(CCc1nnc(-c2ccc3c(c2)OCO3)o1)NCCc1ccccc1F, the Potency is reported as inconclusive [activator, partial curve, poor fit].
With COc1cc2ncnc(NCc3ccc(C)cc3)c2cc1OC the Potency was inconclusive [activator, full curve].
In the case of COc1cccc(NC(=O)c2ccnc(N3CCC(C(=O)NCc4cc(OC)ccc4OC)CC3)c2)c1, the Potency is reported as “inactive”.
With O=C1ON=C(c2ccccc2)/C1=C/c1ccco1 the Potency was inconclusive [activator, single point].
For O=c1c(N2CCOCC2)c(N2CCOCC2)c1=O, the Potency was “inactive”.
With Cc1cccn2c(=O)c(C=O)c(Cl)nc12 the Potency was inconclusive [activator, single point].
For Cc1cc(C)c2c(=O)[nH]c(SCC(=O)c3ccc(C(C)C)cc3)nc2n1, the Potency was inconclusive [activator, partial curve, poor fit].
In the case of O=C(COc1ccccc1)NCC(=O)Nc1cccc(S(=O)(=O)NC2=NCCC2)c1, the Potency is reported as “inactive”.
With COc1ccc(-c2cc(C(F)F)n3ncc(C(=O)N4CCN5CCCC5C4)c3n2)cc1 (stereo not given) the Potency was “inactive”.
In the case of COc1ccc2nc(-c3ccc(N)cc3)[nH]c2c1, the Potency is reported as “inactive”.
In the case of CCc1ccccc1NC(=O)c1ccc(-n2c(C)ccc2C)cc1, the Potency is reported as inconclusive [activator, single point].
With COc1ccc(-c2ccc3c(N)c(C(=O)c4cccc(OC)c4)sc3n2)cc1 the Potency was active: 20.6 µM.
With O=C(NCc1ccccc1Cl)c1ccc2c(=O)n(CC3CCCO3)c(=S)[nH]c2c1 (stereo not given) the Potency was inconclusive [activator, single point].
In the case of COc1cc(/C=C2\S/C(=N/S(=O)(=O)Cc3ccccc3)NC2=O)c([N+](=O)[O-])cc1OC, the Potency is reported as inconclusive [activator, single point].
In the case of CCOc1ccc(N(C(=O)c2snc(C(N)=O)c2N)C(C)C(=O)NC2CCCCC2)cc1 (stereo not given), the Potency is reported as inconclusive [activator, single point].
In the case of Cc1ccc2c(c1)[C@H]1[C@H](CO2)[C@H](c2ccccc2)[C@]2(C)C(=O)Nc3ccc(F)cc3C(=O)N12, the Potency is reported as active: 3.26 µM.
With CC(=O)c1ccc(OCC(=O)N(CCC2=CCCCC2)c2c(N)n(Cc3ccccc3)c(=O)[nH]c2=O)cc1 the Potency was inconclusive [activator, single point].
With Clc1ccc(CN2CCC(Cc3ccccc3)CC2)cc1 the Potency was inconclusive [activator, full curve, poor fit].
For CCOC(=O)Cn1nc(C)n(-c2c(C)cccc2C)c1=O, the Potency was “inactive”.
For COC(=O)c1ccc(CSc2nnc(Nc3ccccc3OC)s2)o1, the Potency was active: 9.2 µM.
For CCOC(=O)c1sc(=S)n(-c2ccccc2)c1N(C(C)=O)C(C)=O, the Potency was inconclusive [activator, partial curve, poor fit].
For COc1cc(/C=N/O)cc(Br)c1OS(=O)(=O)c1ccc(C)cc1, the Potency was inconclusive [activator, single point].
With O=[N+]([O-])c1cccc(-c2cnc3ccccc3n2)c1 the Potency was “inactive”.
In the case of Cc1cc(NC(=O)c2ccccc2-c2ccccc2C(=O)O)no1, the Potency is reported as “inactive”.
For COC(=O)c1ccc(C(=O)NC(=S)Nc2nc3c(s2)CCCC3)cc1, the Potency was inconclusive [activator, partial curve, poor fit].
For COc1ccc(CCNC(=O)[C@H](C)N2C(=O)N3CCc4c([nH]c5ccccc45)[C@@]3(C)C2=O)cc1, the Potency was “inactive”.
With O=C(N/N=C(\c1ccccc1)c1cccnc1)c1cccc(F)c1 the Potency was inconclusive [activator, partial curve, poor fit].
For Cc1cc(-n2c(SCC(=O)NCc3cccs3)nc3n[nH]c(C)c3c2=N)ccc1Cl, the Potency was inconclusive [activator, single point].
In the case of Cc1ccc(Cl)cc1N1CCN(C(=S)NCc2ccco2)CC1, the Potency is reported as inconclusive [activator, single point].
With COc1cc(OC)c(NC(C)C(=O)N2CCCC2)cc1Cl (stereo not given) the Potency was inconclusive [activator, single point].
In the case of CCOC(=O)c1c(NC(=S)Nc2ccccc2C)sc2c1CCC2, the Potency is reported as inconclusive [activator, partial curve].
For O=C(CC(c1ccccc1)c1ccccc1)Nc1ncn[nH]1, the Potency was inconclusive [activator, partial curve, poor fit].
In the case of O=C(NCCc1ccccc1)c1cc2sccc2n1Cc1ccccc1, the Potency is reported as “inactive”.
In the case of COc1cc(CCC(=O)OCC(=O)Nc2ccccc2C(C)C)cc(OC)c1OC, the Potency is reported as inconclusive [activator, single point].
For CC(=O)N(C)c1nc(-c2ccc(Cl)cc2)cs1, the Potency was inconclusive [activator, single point].
For CCC(=O)N1CCc2cc(S(=O)(=O)NCCCOC)ccc21, the Potency was inconclusive [activator, partial curve, poor fit].
For COc1ccc(/C=C/C(=O)Nc2c(C)nn(C)c2C)cc1COc1ccc(Cl)cc1Br, the Potency was inconclusive [activator, single point].
In the case of O=C(CC1C(=O)NCCN1Cc1cccc(C(F)(F)F)c1)NCCc1cnccn1 (stereo not given), the Potency is reported as “inactive”.
In the case of O=C1C2CC=CCC2C(=O)N1c1ccc(OCC(O)Cn2nnc3ccccc32)cc1 (stereo not given), the Potency is reported as “inactive”.
With COc1cc(/C=C/C(=O)OCC(=O)Nc2ccccc2Sc2ccc(Cl)cc2)ccc1O the Potency was active: 20.6 µM.
